Results reported in the supplement of paper PMC7125110.
± gives the standard error. For some assays here: Variants at the floor of the assay are shown more often than the library holds them.

B1: glmS ribozyme (parent)
chain: AUAAAAGCGCCAGAACUACAGAAAUGUAGUUGACGAGGAGGAGGUUUAUCGAAUUUUCGGCGGAUGCCUCCAAA

Tests used:
Details in all cases: with glucosamine-6-phosphate
glucosamine-6-phosphate [1] = variants of: B1; assay: self-cleavage kobs at 640 uM GlcN6P; higher = faster cleavage; RNA array
Method in brief: (§1)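 kobs was derived by fitting per-tile medians to one- or two-exponential decays after normalising signals to baseline and to non-cleaving reference variants. Those signals came from barcoded ribozyme variants transcribed in situ by E. coli RNA polymerase on sequenced MiSeq chips, followed through a hybridised Cy3 probe at 37 °C and imaged over ~14 h. Glucosamine-6-phosphate (40 μM to 10 mM) in HEPES/KCl/Mg(OAc)2 buffer was flowed in. Weighted Michaelis–Menten fits across concentrations then gave kcat and KM.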

glucosamine-6-phosphate [2] = variants of: B1; assay: self-cleavage kobs at 2500 uM GlcN6P; higher = faster cleavage; RNA array
Method in brief: as §1

glucosamine-6-phosphate [3] = variants of: B1; assay: self-cleavage kobs at 10000 uM GlcN6P; higher = faster cleavage; RNA array
Method in brief: as §1

glucosamine-6-phosphate [4] = variants of: B1; assay: self-cleavage kobs at 160 uM GlcN6P; higher = faster cleavage; RNA array
Method in brief: as §1

Variant	self-cleavage kobs at 640 uM GlcN6P (glucosamine-6-phosphate [1]) [s⁻¹]	self-cleavage kobs at 2500 uM GlcN6P (glucosamine-6-phosphate [2]) [s⁻¹]	self-cleavage kobs at 10000 uM GlcN6P (glucosamine-6-phosphate [3]) [s⁻¹]	self-cleavage kobs at 160 uM GlcN6P (glucosamine-6-phosphate [4]) [s⁻¹]
AUAAAAGCGCUAGAACUACAGAAAUGUAGAUGACGACUACGAGGUUUAUCAAAUUUUCGGCGGAUGCCUCCAAA [C11U U30A G37C G38U G40C G51A]	< 1e-05	< 1e-05	–	–
AUAAAAGCGCUAGAACUACAGAAAUGUAGUUGACGAGGAGGAGGUGUAUCGAAUUUUCGGCGGAUGCCUCCAAA [C11U U46G]	5.11e-05 ± 7.1e-06	0.00018 ± 2.7e-05	0.000204 ± 2.3e-05	–
AUAAAAGCGCUAGAACUACAGAAAUGUAGUUGACGAGGAGGAGGUUUAACGAAUUUUCGGCUGAUGCCUCCAAA [C11U U49A G62U]	< 1e-05	–	–	< 1e-05
AUAAAAGCGCUAGAACUACAGAAAUGUAGUUGACGAGGAGGAGGUUUAUCGAAUUUUCGGCGGAUGCCACCAAA [C11U U69A]	0.000191 ± 5.6e-05	0.000157 ± 3.2e-05	6.31e-05 ± 1.7e-05	5.24e-05 ± 1.6e-05
AUAAAAGCGCCCGGACUACAGAAAUGUAGUUGAGGAGUAGGAGGUUUAGCGAAUUUUCGGCGGGUGCCUCCAAA [A12C A14G C34G G38U U49G A64G]	< 1e-05	< 1e-05	–	–
AUAAAAGCGCCCGGACUACAGAAAUGUAGUAGACUAGUUGGAGGUUUCUCGAAUUUUCGGCGGAUGCCUCCAAA [A12C A14G U31A G35U G38U A39U A48C]	< 1e-05	–	–	–
AUAAAAGCGCCCGACCUACAGAAAUGUAGUUGACGAGCAGGAGGUUUGUCGAAUUUUCGGCGGAUGGCUCCAAA [A12C A15C G38C A48G C67G]	< 1e-05	–	–	–
AUAAAAGCGCCCGAUCUACAGAAAUGUAGUUGGCCAGGAGGAGUUUUAUCGAAUUUUCGGCGGAUGCCUCCAAA [A12C A15U A33G G35C G44U]	< 1e-05	< 1e-05	–	–
AUAAAAGCGCCCGAACUACAGAAAUGUAGUUGCCAAGAAGGAGGUUUAUCGAAUUUUCGGCGGAUGCCUCCAAA [A12C A33C G35A G38A]	< 1e-05	–	–	–
AUAAAAGCGCCCGAACUACAGAAAUGUAGUUGGCGAGGAAGAGGUUUAUCGAAUUUUCGGCGGAUGCCUCCAAA [A12C A33G G40A]	< 1e-05	< 1e-05	–	< 1e-05
AUAAAAGCGCCCGAACUACAGAAAUGUAGUUGUCGAGCAGGAGGUUUAUCGAAUUUUCGGCGGAUGCCUCCAAA [A12C A33U G38C]	< 1e-05	< 1e-05	–	< 1e-05
AUAAAAGCGCCCGAACUACAGAAAUGUAGUUGUCGAGGAGGAGGUUUAUCGAAUUUUCGGCGGACGCCUCCAAA [A12C A33U U65C]	< 1e-05	–	–	< 1e-05
AUAAAAGCGCCCGAACUACAGAAAUGUAGUUGACGUGGAGGAUGUUUAUCGAAUUAUCGGCGGAUGCCUCCAAA [A12C A36U G43U U56A]	< 1e-05	–	–	< 1e-05
AUAAAAGCGCCCGAACUACAGAAAUGUAGUUGACGAGGAGGUGGUUUAUGGGAUUUUCGGCGGAUGCCUCCAAA [A12C A42U C50G A52G]	< 1e-05	–	–	–
AUAAAAGCGCCCGAAUUACAGAAAUGUAGUUGACGAGGAGGAGGUUUAUCGCAUUUUCGGCGGAUGCCUCCAAA [A12C C16U A52C]	< 1e-05	–	–	–
AUAAAAGCGCCCGAACUACAGAAAUGUAGUUGACGAGGAGGAGGUUUAUCGAAUUUUCGGGAGAUGCCUCUAAA [A12C C61G G62A C71U]	< 1e-05	< 1e-05	–	–
AUAAAAGCGCCCGAACUACAGAAAUGUAAUUGACGAGGGGGAGGUUUAUCGUAUUUUCGGCGGAUGCCACCAAA [A12C G29A A39G A52U U69A]	< 1e-05	–	–	–
AUAAAAGCGCCCGAACUACAGAAAUGUAAUUGACGAGGAGGAGGUUUAUCGAAUUUUCGACGGAUGCCUACAAA [A12C G29A G60A C70A]	< 1e-05	–	–	–
AUAAAAGCGCCCGAACUACAGAAAUGUAGUUCACGAGGAGGAGGUUUAUCGAAUUUUCCGCGGAUGCCUCCAAA [A12C G32C G59C]	< 1e-05	< 1e-05	–	–
AUAAAAGCGCCCGAACUACAGAAAUGUAGUUUUCGAGGAGGAGGUUUAUCGAAUUUUCGGCGGAUGCCUCCAAA [A12C G32U A33U]	< 1e-05	< 1e-05	–	–
